Measured values as given in PMC10726135.
Some of the results follow. At the low end of the ranking the order means little. Measured with an extract: partners may take part in the binding.

What follows are sequences tested against T1, HNF4alpha2 (COS-7 nuclear extract) (UniProt P41235) (assay: protein-binding microarray). Conditions: COS-7 nuclear extract on double-stranded Agilent 4x180k PBM; binding buffer, salt, pH and temperature not given; high values mean tight binding; double strand, one strand shown; sequences stand for … in …GCCTAGGGAGATTAGAGTATCGGTCGA.
T1 sequence: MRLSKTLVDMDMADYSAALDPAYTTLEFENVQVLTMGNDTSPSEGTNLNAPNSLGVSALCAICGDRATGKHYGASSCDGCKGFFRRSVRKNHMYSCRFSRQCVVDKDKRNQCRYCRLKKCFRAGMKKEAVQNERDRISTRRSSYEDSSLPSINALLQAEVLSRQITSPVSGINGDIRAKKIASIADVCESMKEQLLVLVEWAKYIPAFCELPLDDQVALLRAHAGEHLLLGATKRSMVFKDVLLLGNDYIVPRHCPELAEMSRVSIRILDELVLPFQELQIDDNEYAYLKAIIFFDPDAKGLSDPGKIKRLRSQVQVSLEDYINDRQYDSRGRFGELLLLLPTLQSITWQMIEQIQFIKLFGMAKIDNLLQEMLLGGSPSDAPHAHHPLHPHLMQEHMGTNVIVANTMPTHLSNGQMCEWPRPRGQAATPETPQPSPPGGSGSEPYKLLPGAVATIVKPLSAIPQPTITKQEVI

| Sequence | binding signal (log2 normalized intensity) |
| --- | --- |
| GATTACATGGGAGATAGAGCAGTGGAAGAC | -1.01 |
| TATTACTAAGTGAGAAAAGAACCATGAGAG | -0.566 |
| TTAAAGACCAAAGATCACAGTGAAGGTGAA | 0.86 |
| TGTGAACCCAGGCAAAGTCCAGAAATAGCA | 1.4 |
| TTGATTCCATGCTGATAATGGAATTGACAT | 0.927 |
| AGAGAAGTTGATTGCACCCTTCCCTAAGAT | 0.293 |
| AGATCTCAGTTGGTCCAAGGTACATGTCTC | 2.34 |
| AAAGCCCTTTTTGGAATGTGTTTGCATGAC | 1.63 |
| GAATCAAAGGTCAGGAATCGCATTGCAAAA | 1.13 |
| AGCGGAAAGAAAGGCCTTTCATACGTTTAA | -1.02 |
| AGGGTCAGTTTGAAATTAGGCAATATGAGT | 1.1 |
| TACCTCTGATCACTACAAGCTTTGAAGGCA | -1.11 |
| ACTGGTGGTTTCACAATTAAGCCAAACTTG | -1.18 |
| CTCTTTTCTTTGTACCGTATTTCAGACCAC | 2.19 |
| TTTACTGAGACTTAACAGTCACTCATGAGC | -1.1 |
| GTCAGATGGCCAAAGTCAACATTGATGGGG | -0.071 |
| GAGTGACCTGGTATTGCAAGTATTTCACCC | 1.57 |
| CACTGTGCTCTGAAAAGTGAACTGTCTGCT | 0.113 |
| TCAGGAGTGATGCCAGAAGATTAGTGATGG | -0.625 |
| CTCCAGATCAAAGGTCAAACAGTGCACTGA | 5.4 |
| TGCAAGACCTCAGCCCTCAGGGGCCTTCAG | -0.862 |
| ACTCAAAGAAAAGTTATGTTGGGCAACTAC | -0.192 |
| CAGCCACTTTTAAAAGGTAACATCAAAGCC | -0.841 |
| GGGGTTAACGTCCAAAGGTAATGGTCTCTC | 2.04 |

| Sequence | binding signal (log2 normalized intensity) |
| --- | --- |
| GCAAGGATGGGGGCAAAGGTTGACACCTAG | 4.18 |
| TCTCACTCACCCTAAGCCCTGCTCAGGGAA | -1.01 |
| ACATGGTCCAGTCACAGCAAAAGTAGCCTG | -0.698 |
| ATTATCCCCCTATCCCAAGACATCAATTAA | 3.88 |
| ATCCCACCAAAACCAAGATAGTGACGGAGG | -1.23 |
| TGTTTGCAAGTCGAGCAAGGTTCAGCACAT | 0.65 |
| GAATTCCATCCCAGGTCCACAGTGCACATT | 1.25 |
| GTGGGTTTAAGTAAGCCCCCTTCCCCCCTG | 5.21 |
| ACAGGGATTACGATCCTGCCCTTCTGACCT | 5.19 |
| CATTCTCAGCTGCCACTGGAAGCTCTTCTG | -1.11 |
| ACAACCTTCTGAGATGGAGCATGATGAAAT | -0.0203 |
| TACCTATGCCTTGTCTAGTTAAGTGTTCAG | 1.59 |
| CTTTCAAACAAAAGCTGCTTCTGTAAAACT | -0.835 |
| TTTAAGAGCTCTGTGTCAAAAATCAGGGAC | -0.28 |
| CAATCAGCCTTAGGTATGCCCCATGGTAAG | 1.68 |
| GGCTTGCAAGACTGCATTCCCTAGATGTCG | -0.552 |
| AAAACCATTGCAAATTGGATGTTGAACCTC | 3.66 |
| AGAGATAAGGTCTTCTACAGTCCAAAGGGC | 5.44 |
| TCCAGAAAAGACCAAAAAGGCTAACTTACC | -0.941 |
| GAGCAGCTCTGTATTGAGATAAGCAAGACT | -1.13 |
| TGTTGCAAGCAATGGAGAGGATTTTGGAAT | 0.279 |
| TAGCACCTTCCAGCAGCAGGCCTGGGGGCA | -0.985 |
| GTCCTGCTGGTTTGCCATTTGGAGAGAGTT | 1.37 |
